In ChEMBL document CHEMBL4888484, “Replenishing the malaria drug discovery pipeline: Screening and hit evaluation of the MMV Hit Generation Library 1 (HGL1) against asexual blood stage Plasmodium falciparum ,using a nano luciferase reporter read-out” (2022):
Values joined by “and” are separate entries in the source; they are usually repeats but may differ in a detail not shown here. Equal entries are not always repeated. About 540 (0.36%) of roughly 150,000 compounds showed an effect of 50% or more. The list shows a part of the results.

System: Plasmodium falciparum
Assay: Primary screen in NF54 nanoGlo assay, in single point, at 2uM, 72h; a lower Z score goes with more inhibition
Format: functional, Erythrocyte
Conditions: timepoint 72 hour

Compound | % Inhibition [%] | Z score | % Inhibition (2 µM) | Z score (2 µM)
Cn1nc(C2CCN(C(=O)c3ccccc3)CC2)c2c1CCOC2 | -6 | 0.82 | – | –
O=C1CN(C(=O)Nc2ccc(-c3cc[nH]n3)cc2)C2CCCCC2N1 (stereo unspecified) | 30 | -3.45 | – | –
CN(C(=O)CCC(=O)Nc1cccc(O)c1)[C@H](c1ccccn1)C1CC1 | 0 | 0.08 | – | –
CCCC(=O)N1CC2(CCN(C(=O)OC(C)(C)C)CC2)[C@@H]2COC[C@@H]21 | 3 | -0.6 | – | –
CCN1CC2(CCN(C(=O)Cc3c(F)ccc(Cl)c3F)CC2)CC1=O | -16 | 2.08 | – | –
CCc1cnccc1C(=O)N(c1cc(C)ccc1C)C1CCOCC1 | 4 | -0.83 | – | –
Cc1c(NC(=O)N2CCN([C@H]3CCCC[C@@H]3O)CC2)cccc1N1CCCC1 | -20 | 3.76 | – | –
CCS(=O)(=O)N1CCN(c2noc(-c3ccccc3)n2)CC1 | -2 | 0.36 | – | –
Cc1cc(C)n(CC(=O)N2CC(F)(F)C[C@H]2c2nncn2Cc2ccc(F)cc2)n1 | 1 | -0.17 | – | –
O=C1CC[C@H](C(=O)NC2(c3cc(C(F)(F)F)ccc3Cl)CC2)N1 | -8 | 0.78 | – | –
COc1ccc(Cl)cc1N1CCN(c2ncc(C(=O)NCCCN3CCOCC3)c(OC)n2)CC1 | -8 | 0.77 | – | –
N#CCN1CCc2c1cccc2C(F)(F)F | -7 | 0.76 | – | –
COC(=O)c1cnc(N2CCCCC2)cc1N1CCCCC1 | -5 | 0.71 | – | –
O=C(NC[C@H](NC(=O)c1cccnc1)C1CC1)c1cccnc1 | -15 | 2.84 | – | –
CCOC(=O)c1c(CC)nn2c1N[C@H](c1ccc(Cl)cc1)C2 | 2 | -0.28 | – | –
Cc1cccc(C)c1C(=O)Nc1ccc2ccn(C)c(=O)c2c1 | -3 | 0.64 | – | –
O=C(CC1CCOCC1)Nc1cnccn1 | 4 | -0.41 | – | –
CCn1cc(C2OCCC2CNC(C)c2nc(C)no2)cn1 (stereo unspecified) | -5 | 0.51 | – | –
CCc1ncnc(O[C@H]2CCN(C(=O)Cc3ccc4c(c3)OCO4)C2)c1F | -2 | 0.29 | – | –
Cc1cc(Br)cn2c(CNc3ncc(C(F)(F)F)s3)cnc12 | -3 | 0.45 | – | –
COc1cccc(C(=O)Nc2nc(=S)ss2)c1 | 10 | -1.39 | – | –

Compound | % Inhibition [%] | Z score | % Inhibition (2 µM) | Z score (2 µM)
COCCC1(CNS(=O)(=O)c2cccnc2)CCCC1 | -10 | 1.06 | – | –
COc1cccc(N2CCN(C3=NC(=O)[C@@H](C#N)C4(CCCC4)N3)CC2)c1 | 31 | -0.27 | – | –
O=C(Nc1ccc(OC(F)(F)C(F)F)c(NC(=O)NC2CCCCC2)c1)NC1CCCCC1 | 7 | -0.79 | – | –
Cc1ccc(-c2csc(NCc3ccccc3)[n+]2Cc2ccccc2)cc1 | -9 | 1.56 | – | –
Cc1cc(=O)c(C(=O)N2CCN(Cc3ccccc3)CC2)c(CC2CCCC2)n1Cc1cccnc1 | -8 | 1.11 | – | –
CC(C)c1noc([C@H](C)NC(=O)CCCCc2ccccc2)n1 | -12 | 1.25 | – | –
CC[C@@](C)(C(=O)Nc1ccc(N2CCOCC2)cc1)N(Cc1ccccc1F)C(=O)Cc1ccccc1 | 1 | -0.16 | – | –
Cc1[nH]cnc1CC(=O)N1CCOC[C@H]1C1CCC1 | 5 | -0.65 | – | –
CC(C)NC(=O)N1CCCCC[C@@H]1CN1CCCC1 | -2 | 0.28 | – | –
Cc1ccc([C@@H]2CCCCCN2S(C)(=O)=O)s1 | -7 | 0.97 | – | –
CC1CCN(C(=O)OC(C)(C)C)CCC1NCC(=O)NCC1CC1 (stereo unspecified) | 2 | -0.19 | – | –
CC[C@@H](C)[C@H](NC(=O)[C@H]1CC[C@H](Cn2c(=O)[nH]c3ccccc3c2=O)CC1)C(=O)O | 4 | -0.55 | – | –
CCC(=O)N(Cc1ccc(C)cc1)c1ccc(CC(=O)NC(C)C)cc1 | -14 | 1.31 | – | –
Cc1c(NC(=O)c2noc3c2CCc2ccccc2-3)c(=O)n(-c2ccccc2)n1C | -14 | 1.62 | – | –
COCCN(CC(C)C)C(=O)Nc1ccc(Cl)cc1C | 4 | -0.57 | – | –
CC(C)(NC(=O)c1cn(Cc2ccc(Cl)cc2)nn1)c1cn(Cc2ccc(Cl)cc2)nn1 | -4 | 0.47 | – | –
Cc1noc2ncnc(N3CCc4cc(Cl)ccc4C3)c12 | -10 | 1 | – | –
O=C1CC[C@@H](c2c(-c3ccc4ccccc4c3)[nH]c3ccccc23)N1Cc1ccccc1 | 32 | -3.61 | – | –
Cc1ccc(CNC(=O)N[C@@H](C)c2nc[nH]n2)c(OC2CCCC2)c1 | -11 | 1.46 | – | –
Cc1cc(C(F)(F)F)cc(N2Cc3cnc(CC(C)C)nc3C2)n1 | 0 | -0.06 | – | –
O=C(Nc1ccccc1F)C1CCN(S(=O)(=O)c2ccc3c(c2)CCCN3C(=O)C2CCC2)CC1 | -7 | 1.3 | – | –

Compound | % Inhibition [%] | Z score | % Inhibition (2 µM) | Z score (2 µM)
O=C(c1ccc(Cl)cc1)c1cnc2n1CCC2 | -1 | 0.13 | – | –
Cc1nc(N2CCC(C(=O)N3CCC(O)(c4cccc(C(F)(F)F)c4)CC3)CC2)nc2ccccc12 | -16 | 2.09 | – | –
N#Cc1cccc(-c2cn([C@H](CO)Cc3ccc(Cl)cc3)nn2)c1 | -1 | 0.17 | – | –
CN1CC2(CCN(C(=O)c3cccn3C)CC2)C[C@@H](c2ccccc2)C1=O | 5 | -0.75 | – | –
Cc1cc(C)nc(CN(C)Cc2ccc(OC(C)C)c(CO)c2)c1 | -14 | 1.72 | – | –
COc1cccc(NC(=O)Cn2nc(-c3ccccc3)c3cnc4ccccc4c32)c1 | -10 | 0.92 | – | –
C[C@@H](Cc1ccccn1)N(C)C(=O)c1ccc(-c2ccccc2)[nH]1 | 1 | -0.14 | – | –
CN1CCN(c2nnc(-c3ccccc3)s2)CC1 | 13 | -1.9 | – | –
CN1CCN(Cc2cc3cc4c(cc3nc2-c2ccc(Cl)cc2)OCO4)CC1=O | 53 | -6.77 | – | –
CC(=O)NC1CC(=O)N(C2CC2c2ccccc2)C1 (stereo unspecified) | -1 | 0.18 | – | –
COc1ccccc1CCn1cnc(-c2ccccc2)c1-c1c[nH]c(C)n1 | -1 | 0.19 | – | –
Cc1ccc(C)n1CC(=O)Nc1ccc(C(F)(F)F)cn1 | -2 | 0.25 | – | –
CCCn1c(=O)c(N2CCN(C(=O)Cc3ccc(F)cc3)CC2)nc2ccccc21 | -8 | 1.38 | – | –
O=C(CC1CCCCC1)NC1CCN(CCn2cccn2)CC1 | -5 | 0.88 | – | –
CC(C)Cc1nc(NC(=O)Cc2ccc3c(c2)OCC3)n[nH]1 | 0 | 0.01 | – | –
COC(=O)[C@H](C)c1c(C)nn(Cc2noc(C(C)C)n2)c1C | 0 | 0.07 | – | –
O=C(Cn1cnc(-c2noc(-c3ccccc3)n2)c1)NCc1ccccc1Cl | -12 | 2.21 | – | –
CCNc1nc(C)c(C(=O)N[C@@H](CC)c2ccc(C)cn2)s1 | -14 | 1.81 | – | –
O=C(N[C@@H]1CC[C@H]2CCOc3ccccc3C(=O)N3CCN(CC4CC4)C[C@H]3C(=O)NC[C@H]1O2)C1CCOCC1 | 0 | -0.01 | – | –
CCCN(CCC)C(=O)c1cnn(C)c1 | -14 | 1.49 | – | –
COC(=O)c1c(C)cccc1S(=O)(=O)Nc1ccc2oc(C3CC3)nc2c1 | -4 | 0.69 | – | –

Compound | % Inhibition [%] | Z score | % Inhibition (2 µM) | Z score (2 µM)
O=C1C[C@H](c2ccccc2)c2sc(N3CCCCC3)nc2N1 | – | – | -8% and -4% | 1.05 and 0.52
NC(=O)CN1CC=C(C(F)(F)F)CC1 | -5 | 0.74 | – | –
O=C(Nc1ccc2snnc2c1)NC1CCCCC1 | -7 | 0.94 | – | –
Cc1n[nH]c([C@@H]2CN(C(=O)c3cccn3C)CCCN2C(=O)c2ccccc2)n1 | -8 | 1.46 | – | –
NC[C@H](C(=O)NCc1cncc(O)c1)C1CCCCCC1 | -12 | 2.18 | – | –
O=C(NCc1ccco1)N[C@@H]1COCC[C@@H]1OCC1CC1 | -15 | 1.32 | – | –
O=C(NC1CC1)C1(F)CCN(S(=O)(=O)c2cccc(F)c2)CC1 | -19 | 2.51 | – | –
COc1ccnc(NC(=O)OCC(F)(F)F)c1 | -7 | 0.98 | – | –
CC[C@@]1(C)COCCN1CCN1CCCCC1 | 3 | -0.34 | – | –
Cc1nc(C)c(C(=O)N[C@H]2CCCc3occc32)s1 | 1 | -0.25 | – | –
COCc1ccc(C(=O)N2CC[C@H](CO)C[C@@H]2C)o1 | -7 | 0.79 | – | –
Cc1ccc2c(c1)cc(CN(C)Cc1nc(C)c[nH]1)n2C | -12 | 1.17 | – | –
O=C1COCC(CC2CN(c3ncc(Cl)cn3)c3ccccc32)N1 (stereo unspecified) | -4 | 0.84 | – | –
O=C(c1ccncc1)N1C[C@H]2CC[C@@H](C1)N(C(=O)C1CCCCCC1)C2 | -3 | 0.5 | – | –
CCCc1nc(C)cc(N2C[C@H]3CC[C@@H](C2)N(CC(=O)N(C)C)C3=O)n1 | -10 | 0.94 | – | –
CCN(CC)c1ccc2nnc(CCC(=O)Nc3ccc4c(c3)OCCO4)n2n1 | -16 | 2.88 | – | –
Cc1ccc(-n2nc(C3CC3)nc2[C@H](O)c2ccccc2)cc1C | 4 | -0.53 | – | –
Cc1cc(CNCc2cc(Br)ccc2F)on1 | -5 | 0.9 | – | –
COc1ccccc1CN(C[C@H](O)COC(C)(C)C)C(C)C | -6 | 1.04 | – | –
C[C@@H](CC(=O)NS(=O)(=O)c1cccc2c1N=S=N2)C1CC1 | -5 | 0.59 | – | –
